The chains are these.
B1: LINE1-mini (parent)
chain: GGCAGAGCUCAACACAGCGUGGCAAAGUGGCUGUGGCUAGACUGCC

The source gives no read counts; variants with many changes may rest on few reads.

Variants of B1 are the subject of this data set. The data set can be described thus: self-cleavage, relative activity (ratio to wild type); higher = more cleavage; in vitro, sequencing; the parent is a self-cleaving ribozyme.
Consider C3U C18U G19A A24G, for which the self-cleavage is 0.07.

Consider C3U U34G G40C, for which the self-cleavage came out at 0.03.

Turning to C3U C13U A14U G36A, the self-cleavage is 0.03.

Consider C3U C15A A24U G35C, for which the self-cleavage came out at 0.33.

With C3U C37A U43A, the self-cleavage came out at 0.03.

Turning to C3U G19U C46U, the self-cleavage stood at 0.11.

For A4C A6G C23U, the self-cleavage was 0.03.

As to C3U G17A C37U, the self-cleavage came out at 0.06.

As for C3U C15G C18U G35U, the self-cleavage amounted to 0.08.

Turning to C3U G27C G30U, the self-cleavage came to 0.96.

In the case of C3U G22U G27U, the self-cleavage amounted to 0.09.

Take A4C A6U C15G G19U U32G G44U: the self-cleavage was 0.02.

C3U G5A G21U U28A G40U: the self-cleavage turned out to be 0.05.

Turning to A4C A6G G21U U28G, the self-cleavage amounted to 0.07.

With C3U G17C U38A, the self-cleavage stood at 0.18.

Turning to C3U C23U U34A, the self-cleavage is 0.06.

For the variant C3U G5A G27C C45A, the self-cleavage stood at 0.1.

For the variant C3U G30A C46G, the self-cleavage was 0.11.

As for C3U G7U C8A G30U C31G C46U, the self-cleavage was found to be 0.21.

In the case of C3U C13G C15U G35U C46A, the self-cleavage came out at 0.04.

On to C3U C31U U38C, for which the self-cleavage came to 0.08.

On to C3U C18U U43A, for which the self-cleavage came to 0.03.

C3U C13G C18A G30A U32A: the self-cleavage was found to be 0.04.

As for C3U U20C G33C U38G, the self-cleavage was 0.02.

For C3U G22U G33A G35U A41G, the self-cleavage is 0.11.

Consider C3U G17A U20A, for which the self-cleavage was found to be 0.33.

Regarding C3U C15U G17A, the self-cleavage turned out to be 0.09.

Turning to C3U C18A G30A A39G, the self-cleavage came out at 0.08.

As for C3U U20A C42A, the self-cleavage worked out at 0.08.

Regarding C3U G30A C31A, the self-cleavage came out at 0.06.

For the variant C3U G19C A25U A26G A39U, the self-cleavage was found to be 0.07.

Turning to C3U G19C C23G U43A, the self-cleavage was 0.02.

As for C3U G27U G35C G36U, the self-cleavage was 0.09.

Turning to C3U C23G G30A, the self-cleavage was 0.41.

In the case of C3U C13G G30A, the self-cleavage is 0.02.

As for C3U C15A C18A G29A C45U, the self-cleavage turned out to be 0.15.

For the variant C3U C13A G19U, the self-cleavage stood at 0.06.

In the case of C3U C13A G19C, the self-cleavage came out at 0.03.

Regarding C3U G5U A6U, the self-cleavage amounted to 1.3.

C3U C18U G22A G27C: the self-cleavage turned out to be 0.08.

As to C3U G5A U9A C10A A12G G33A C45A, the self-cleavage was found to be 0.03.

As to C3U C13U G19U C23G C37G, the self-cleavage worked out at 0.02.

In the case of C3U G21A G35A, the self-cleavage amounted to 0.24.

As to C3U U9A C31A, the self-cleavage worked out at 0.1.

As for C3U G7C G29C G35C, the self-cleavage was determined as 0.06.

Turning to C3U C18G G27C C46U, the self-cleavage amounted to 0.04.

On to C3U G5A U32A G33C G40U, for which the self-cleavage was 0.1.

For the variant C3U U9C C13U G19A C23U, the self-cleavage was 0.02.

With C3U C15A G33U U34A G44C, the self-cleavage was found to be 0.04.

In the case of C3U G29A U32C, the self-cleavage came to 0.08.

On to C3U G17U G33A, for which the self-cleavage amounted to 0.11.

As to C3U C13U U28A C31G, the self-cleavage was determined as 0.05.

As to C3U G17U A39G, the self-cleavage came out at 0.09.

For the variant C3U C10G U28G, the self-cleavage was 0.05.

For C3U G7A A41C C45G, the self-cleavage came out at 0.21.

In the case of A4C A6C A39U C45G C46G, the self-cleavage turned out to be 0.

As to C3U G5C G17C C18U G30U, the self-cleavage was determined as 0.04.

On to C3U C37U G44U, for which the self-cleavage stood at 0.04.

Take C3U G35C G40C: the self-cleavage was 0.1.

For A4C A6U C42G, the self-cleavage worked out at 0.02.

In the case of C3U G7U C10G A39G, the self-cleavage turned out to be 0.03.

As for C3U U9A C18U G33U, the self-cleavage is 0.17.

Turning to C3U G17A A39C, the self-cleavage came to 0.08.

As to C3U G7U G21U G29C C45U C46G, the self-cleavage is 0.13.

As for C3U G17C G19A U43A, the self-cleavage worked out at 0.16.

As to C3U G7A C13U C31U G33U G40A, the self-cleavage is 0.07.

Regarding A4C A6U G7C U32C, the self-cleavage is 0.09.

Regarding C3U G5A A6C G19A G21C C23U U34A G35U U38A, the self-cleavage came out at 0.04.

As for C3U G17C G22U A24G U34C, the self-cleavage turned out to be 0.13.

Consider C3U C31G G36U C46G, for which the self-cleavage stood at 0.1.

Take C3U C13U G19A A24C G36U G40U: the self-cleavage was 0.11.

Regarding C3U U34A U38G C45U C46A, the self-cleavage is 0.01.

As to C3U G5U C23A G29C, the self-cleavage is 0.

For C3U C13A C15A U38A, the self-cleavage is 0.12.

Turning to C3U U20A A26C C37A A41U, the self-cleavage is 0.01.

Turning to C3U C23A A39C C46U, the self-cleavage worked out at 0.17.

Take C3U C13U G40U C46A: the self-cleavage is 0.14.

On to C3U G5C G19A A24C, for which the self-cleavage amounted to 0.

With C3U G29C G30A G36U, the self-cleavage was determined as 0.45.

In the case of C3U U9A A11C G17A G30A A39G, the self-cleavage was found to be 0.02.

C3U U38C A39C: the self-cleavage worked out at 0.17.

For the variant C3U G21U G30A, the self-cleavage came out at 0.35.

In the case of C3U C13A U34C G40U, the self-cleavage was 0.08.

For the variant C3U C13U C23A G30C, the self-cleavage was 0.04.

On to C3U G7A C42G, for which the self-cleavage was determined as 0.12.

On to C3U U9A G19C G22A, for which the self-cleavage is 0.03.

In the case of C3U G7U G35C, the self-cleavage is 0.03.

With C3U C10U G21C G22U A24C A41C, the self-cleavage is 0.02.

Consider C3U U28A U34A C45G, for which the self-cleavage came out at 0.03.

For C3U U20G C23U G33A C46A, the self-cleavage was 0.05.

Turning to C3U U20G A39C, the self-cleavage was found to be 0.06.

As to C3U G19A G22C C23U, the self-cleavage stood at 0.12.

Regarding C3U G19C G21U A25U U32A G36C, the self-cleavage worked out at 0.05.

For the variant C3U G21U G27A G36A, the self-cleavage turned out to be 0.16.

Turning to C3U C10G U20G G33U G40U G44U, the self-cleavage was determined as 0.01.

For C3U U9C G36C, the self-cleavage is 0.03.

As for C3U G22C G27C G29U, the self-cleavage is 0.08.

For the variant C3U U20C G30A G33A, the self-cleavage was 0.04.

For C3U C18G G21U C37G C45G, the self-cleavage was determined as 0.33.

Regarding C3U C13G C15U G22A U34C C42G, the self-cleavage is 0.19.

Regarding C3U G7A A12U A14C A16C U20C, the self-cleavage came out at 0.23.

In the case of C3U G5U C10A C23A, the self-cleavage was determined as 0.02.

In the case of C3U U9C C13G G17A C42A, the self-cleavage was found to be 0.03.

Turning to C3U G7C G17U A41G, the self-cleavage was 0.06.

As to C3U C15A G35U, the self-cleavage is 0.02.

On to C3U C13A A14G A24G A26C G44U C46U, for which the self-cleavage was determined as 0.06.

As to C3U G22U G27U G40A, the self-cleavage stood at 0.04.

As for C3U U9G C45U, the self-cleavage was 0.44.

With C3U G33C U34G A41U, the self-cleavage was determined as 0.05.

Turning to C3U G5C A14U G35C C45G, the self-cleavage amounted to 0.06.

Take C3U G21A A41G: the self-cleavage was 1.38.

In the case of C3U U20C G36C G40C, the self-cleavage was 0.03.

Regarding C3U U34A U43A, the self-cleavage came to 0.05.

As for A4C A6C C8U G33A U38C, the self-cleavage is 0.42.

Turning to C3U C18A U34A, the self-cleavage is 0.07.

In the case of C3U C18U C37A U38G G40C, the self-cleavage worked out at 0.03.

Consider C3U C23A U43A, for which the self-cleavage came out at 0.07.

C3U C23A G44A C45U: the self-cleavage is 1.25.

C3U G22C A26C U32G: the self-cleavage was determined as 0.01.

C3U C23U C42G U43C: the self-cleavage came out at 0.16.

As for C3U C23G G44C, the self-cleavage worked out at 0.35.

For C3U U9A U38G A41C, the self-cleavage was 0.01.

As to C3U C15G A25U G35U C42U, the self-cleavage was determined as 0.02.

In the case of C3U C18U G21A C37U, the self-cleavage stood at 0.16.

C3U G7A C13U: the self-cleavage turned out to be 0.1.

As for C3U U34G G44A, the self-cleavage stood at 0.13.

C3U C18U A25U C31U C42G: the self-cleavage was 0.03.

With C3U C18A G36U G44U, the self-cleavage worked out at 0.01.

On to C3U G27A U28G, for which the self-cleavage came out at 0.14.

Take C3U G5A A24G G30C: the self-cleavage was 0.06.

As to C3U U9A U20A G30C U34G C46U, the self-cleavage amounted to 0.15.

Consider A4C A6U G27U, for which the self-cleavage amounted to 0.34.

A4C A6U C8A A41C: the self-cleavage was determined as 0.17.

Take C3U U28G G40A: the self-cleavage turned out to be 0.05.

Regarding C3U U9C A11G C15A U20G G21A, the self-cleavage worked out at 0.01.

On to C3U C13A G36C, for which the self-cleavage stood at 0.06.

C3U G29U G36U C37U: the self-cleavage turned out to be 0.02.

C3U G5U C10G A12C C46U: the self-cleavage was 0.06.

Take C3U G21A A24G: the self-cleavage is 0.73.

For C3U C13G C23A, the self-cleavage amounted to 0.16.

In the case of C3U G22A G27A G44C, the self-cleavage is 0.29.

For the variant C3U G27C G33A G40C, the self-cleavage came out at 0.11.

As to C3U G19U G27A, the self-cleavage was 1.07.

Consider C3U C15A C18G C46U, for which the self-cleavage came out at 0.05.

Consider C3U G19A C23G, for which the self-cleavage amounted to 0.29.

Consider C3U G5C C15G G22U C23U, for which the self-cleavage was determined as 0.04.

As to C3U G22A G36A, the self-cleavage came out at 0.13.

Take C3U G29U G33C: the self-cleavage is 0.09.

In the case of C3U G5U U9A C13A C23G G29U G40A A41U, the self-cleavage worked out at 0.03.

As to C3U C18U A25G C31U, the self-cleavage amounted to 0.02.

Take C3U C13U C23A A41G: the self-cleavage turned out to be 0.53.

As for C3U G7U C8A C18A, the self-cleavage is 0.33.

For C3U G5A G17C G22U G35U, the self-cleavage was determined as 0.11.

On to C3U C15G G30C, for which the self-cleavage was found to be 0.03.

With C3U G29U G30A C31G G40A C45U, the self-cleavage stood at 0.05.

With C3U G21C A24U U43A, the self-cleavage was 0.06.

In the case of C3U G5C G7A, the self-cleavage was 1.24.

For C3U G5C A25G G33A, the self-cleavage turned out to be 0.15.

Consider C3U C18U G33C G36C, for which the self-cleavage was 0.02.

Regarding C3U G40U C42U, the self-cleavage was 0.

With C3U C37G U38A, the self-cleavage came to 0.12.

Turning to C3U G35A A41G, the self-cleavage was found to be 0.06.

In the case of C3U G5C G7C G35A, the self-cleavage amounted to 0.1.

As for C3U U9G A14G, the self-cleavage was 0.09.

Regarding C3U G17C A25C U43A, the self-cleavage worked out at 0.06.

Turning to C3U G5U C10U G17U A24G G40A, the self-cleavage is 0.01.

For the variant C3U U9G U43G, the self-cleavage came to 0.71.

Source of the values: the RNAGym collection of RNA variant scans (doi:10.7554/elife.90254).
